# Among all 220,000 compounds or so, about 2,300 (1%) were called active. This list was built around the results that the source calls inconclusive (neither active nor inactive); the mix of calls is not that of the screen. Calls come from the whole dose curve; as a rule, active = well fitted inhibition curve with a large enough effect; inconclusive = small, poorly fitted or top-dose-only effect, or effect the other way; inactive = no such curve, though single readings can be large or run the other way. No potency is given beside an inconclusive call; the fits are too rough.
# Biological target: Neuropeptide S receptor (Homo sapiens) (UniProt Q6W5P4)
# Assay: qHTS Assay for Antagonists of the Neuropeptide S Receptor: cAMP Signal Transduction; note: nearly all actives have a fitted effect of over 50% in size
# Settings: CHO-NPSR cells, cAMP TR-FRET, antagonist mode; series mostly up to 38.3 µM
# Potency is the fitted concentration of half-maximal effect; tags give direction and shape of the fitted curve.
# Chain of UniProt Q6W5P4 (Q6W5P4 whole entry, looked up): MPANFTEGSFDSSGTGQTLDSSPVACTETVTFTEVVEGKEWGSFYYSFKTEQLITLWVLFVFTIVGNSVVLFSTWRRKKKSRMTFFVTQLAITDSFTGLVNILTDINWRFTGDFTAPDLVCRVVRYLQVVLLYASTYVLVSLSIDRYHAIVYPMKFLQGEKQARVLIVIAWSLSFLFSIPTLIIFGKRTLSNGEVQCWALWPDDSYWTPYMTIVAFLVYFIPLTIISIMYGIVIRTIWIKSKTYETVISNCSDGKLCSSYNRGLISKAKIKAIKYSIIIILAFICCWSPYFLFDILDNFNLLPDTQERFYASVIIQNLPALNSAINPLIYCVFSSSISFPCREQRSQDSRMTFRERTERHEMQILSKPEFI
row,SMILES,Potency
1,Cc1cc(C)n2nc(SCC(=O)N(C)c3ccccc3)nc2n1,inactive
2,O=C(Nc1nc2ccccc2[nH]1)c1ccc(Cl)c(S(=O)(=O)N2CCCC2)c1,"inconclusive [inhibitor, single point]"
3,COC(=O)c1ccc(Oc2nc(Nc3ccc(F)cc3)nc(N3CCCC3)n2)cc1,"inconclusive [inhibitor, partial curve]"
4,O=C(NCc1ccccc1)c1ccc(C2SCC(=O)N2Cc2ccccc2)cc1 (configuration not stated),"inconclusive [inhibitor, single point]"
5,Cc1cc2c(=O)n(Cc3ccco3)c(SCC(=O)c3ccc(Cl)s3)nc2s1,"inconclusive [inhibitor, partial curve]"
6,CCc1ccc(C2=NN(C(C)=O)C(c3ccco3)C2)cc1 (configuration not stated),inactive
7,CCOCCn1c(SCc2ccc(F)cc2)nc2c1c(=O)[nH]c(=O)n2C,inactive
8,O=C(NNC(=O)c1cccnc1SCc1cccc([N+](=O)[O-])c1)c1ccc(F)cc1,inactive
9,Cc1ccc(S(=O)(=O)NCC(=O)N(CC(=O)NCc2ccco2)Cc2ccco2)cc1,inactive
10,CC(=O)c1cccc(NC(=O)CSc2nnc(-c3ccc(S(=O)(=O)N4CCCC4)cc3)o2)c1,"inconclusive [inhibitor, single point]"
11,Cc1cc(C)n(C(=O)CCC2COc3ccccc3O2)n1 (configuration not stated),inactive
12,COc1ccc(-c2nnc3sc(-c4ccccn4)nn23)cc1,"inconclusive [inhibitor, partial curve, poor fit]"
13,COc1cccc(OCCSc2nc(N)cc(N)n2)c1,inactive
14,Fc1ccc(-c2n[nH]c(=S)c3ccccc23)cc1,inactive
15,CCCCOC(=O)/C=C\C(=O)NC(N)=O,"inconclusive [activator, single point]"
16,Cc1ccc(S(=O)(=O)c2c(C)nn(C(C)(C)C)c2OC(=O)c2ccco2)cc1,"inconclusive [inhibitor, partial curve]"
17,CCCn1nc(NC(=O)c2cccs2)c2cc3ccc(C)cc3nc21,"inconclusive [activator, single point]"
18,CCn1ccnc1CN(C)Cc1cn(-c2ccc(C)cc2)nc1-c1cccc(C)c1,"inconclusive [activator, single point]"
19,CCOC(=O)CNS(=O)(=O)c1cc(-c2nn(C)c(=O)c3ccccc23)ccc1C,"inconclusive [inhibitor, partial curve]"

row,SMILES,Potency
1,Cc1cccc(OCCCCCn2ccnc2)c1,inactive
2,NC(=O)c1ncc(C(F)(F)F)cc1Cl,inactive
3,CCOC(=O)c1c(NC(=O)CSc2nnc(-c3cccnc3)n2Cc2ccco2)sc(C)c1C,"inconclusive [inhibitor, single point]"
4,COc1ccc(/C=C\c2onc(C)c2S(=O)(=O)N2CCC(C(=O)NCc3ccco3)CC2)cc1,"inconclusive [inhibitor, single point]"
5,CCOc1ccc(C(=O)NC(=S)Nc2cccnc2)cc1[N+](=O)[O-],inactive
6,COc1ccc(CCNC(=O)COc2ccc([N+](=O)[O-])cc2)cc1,inactive
7,CCn1cc(C(=O)NCc2ccccc2)c(=O)c2cc(F)c(N3CCN(C(=O)c4ccco4)CC3)cc21,"inconclusive [inhibitor, single point]"
8,CCC1(CC)Cc2ccccc2-c2nc(NCCO)[nH]c(=O)c21,inactive
9,NS(=O)(=O)c1ccc(CCNC(=O)C2CCCCC2)cc1,inactive
10,CC1=C(C)/C(=N\OC(=O)/C=C/c2ccccc2)C=CC1=O,"inconclusive [inhibitor, single point]"
11,COc1ccc(/C=C(/NC(=O)c2ccccc2)C(=O)N/N=C/c2ccc3c(c2)OCO3)cc1OC,"inconclusive [inhibitor, single point]"
12,COCCNCC(=O)NCC12CC3CC(CC(C3)C1)C2,"inconclusive [inhibitor, single point]"
13,CCc1nnc(NC(=O)[C@@H](NC(=O)c2cccc(S(=O)(=O)N(CC)CC)c2)C(C)C)s1,"inconclusive [inhibitor, single point]"
14,O=C(NC(=S)N1CCN(Cc2ccccc2)CC1)c1cccnc1,inactive
15,COc1ccc(NC(=O)CN(c2ccc(C)cc2)S(C)(=O)=O)c(OC)c1,"inconclusive [inhibitor, full curve]"
16,COc1ccc(-c2nc(-c3cccs3)c(-c3cccs3)[nH]2)cc1OC,inactive
17,O=C(Nc1cccc2cccnc12)c1cccc(N2C(=O)CCC2=O)c1,"inconclusive [inhibitor, full curve, poor fit]"
18,CCOC(=O)C1CCCN(c2ccc(NC(=O)c3snc4c(=O)[nH]cnc34)cc2)C1 (configuration not stated),active: 15.8 µM
